# The source gives no read counts; variants with many changes may rest on few reads.
# B1: LINE1-full (parent)
# chain: UACGUAGGUGGUUUUCCCCUGAUAGUGCUAAGGGGGCCUGGAAGUUUGGACUGGGCAGAGCUCAACACAGCGUGGCAAAGUGGCUGUGGCUAGACUGCCUCUCUGGAUUCCUCGUCACUCAGCAGGGCAUCUCUGAGAGAAAUGCC
# Variants of: B1
# Assay: self-cleavage, relative activity (ratio to wild type); higher = more cleavage; in vitro, sequencing; the parent is a self-cleaving ribozyme
row,Variant,self-cleavage
1,A2G U15C G40A A59G U100G U132C,0
2,A2G U15C G41A A69U,0.34
3,A2G U15C G106U,1.16
4,A2G U15C U46C C123A,0.52
5,A2G U15C U102C,0.34
6,A2G U20A A140G U143C,0.82
7,A2G U20A U45C,0.33
8,A2G U20A U115C,0.37
9,A2G U26A G34C,0.78
10,A2G U26A G89A C113U A142C,0.12
11,A2G U26A G97A,0.26
12,A2G U29C U104C,0
13,A2G U39A A79G C84U,0.29
14,A2G U39A U46C C98U G144C,0.46
15,A2G U39G A78U,0.54
16,A2G U45C C110A,0.69
17,A2G U45C U102C,0
18,A2G U46C A50G A117U,0.35
19,A2G U46G A107G,1.06
20,A2G U47A G58U A65G U119G,0.12
21,A2G U47A G80C,0.78
22,A2G U47A U87A,0.21
23,A2G U47C A67U A92U A117U A140G U143A,0.71
24,A2G U47C U81A,1.39

row,Variant,self-cleavage
1,A2G U47G U130C,0.57
2,A2G U52A A136G,0.94
3,A2G U52A A138U,0.44
4,A2G U52C U119C,1.72
5,A2G U62C A78C U115C,0
6,A2G U62C A79G,0
7,A2G U62C A136G A140G,1.15
8,A2G U62C C84U A138G,0.24
9,A2G U62C U73A C113A U119A,0.2
10,A2G U73A C76U,1.89
11,A2G U73A U109A,0.8
12,A2G U73C A124G,0.77
13,A2G U73C U85C U96C C128U,0
14,A2G U85C U108C C118U A142G,0
15,A2G U85C U112C,0.3
16,A2G U87G U112C,0.42
17,A2G U96C U132C,0
18,A2G U108C A117G,0
19,A2G U134C A138G,0
20,A2U A6U A77G A142G,1.34
21,A2U A6U U73C,0.26
22,A2U A22G A94U,0.53
23,A2U A22U U26A C37U A43U A57C A77U U96C,0.14
24,A2U A31U A50U U62C,0.12

row,Variant,self-cleavage
1,A2U A31U U73C,0.47
2,A2U A42G A59U,0.57
3,A2U A43G A78G A140G,0
4,A2U A57G G72A,0.69
5,A2U A57U A79G,0.13
6,A2U A59G C128U U130C,0
7,A2U A59U A77U G126A,0.77
8,A2U A64U A69G A124G,0.24
9,A2U A65G A124G,0.39
10,A2U A67G A77U A121G,0.41
11,A2U A69G U134G,0.17
12,A2U A78C A94G,0.28
13,A2U C3U A129G,1.05
14,A2U C56U U132A,0.22
15,A2U G36C G74U,0.56
16,A2U G41A U46C A79G U115C,0.89
17,A2U G48A A78G,0.59
18,A2U G70A A107G A117U U132A,0.13
19,A2U U12A A94G A129U,0.22
20,A2U U12C A22G A94G,1.15
21,A2U U12C A78G C116U A142G,1.53
22,A2U U12C A124U A129G,1.26
23,A2U U12C U13C U134C,0.69
24,A2U U12G U20C G32C U62A,0.6

row,Variant,self-cleavage
1,A2U U14C A50U A142G,0.89
2,A2U U14C A78G,0.43
3,A2U U14C U46C U100C,0.3
4,A2U U15C A24G A30C G34A A65G,0
5,A2U U15C A50G U119C A124G C146U,1.31
6,A2U U20C A64G U91A,0.57
7,A2U U23C C123A A138G,0.8
8,A2U U29C G32A U91C,0.91
9,A2U U39A U62C U96C A121G U132C,0
10,A2U U47C U104A,0.56
11,A2U U52C U102C U132A,0.75
12,A2U U62C A140G,0
13,A2U U87A A124U,0.09
14,A2U U102C U115A,0.51
15,A2U U104A G127A,0.24
16,A2U U109A U143C,0.71
17,C3A A77C U130A,0.34
18,C3A G8A A59G,0.08
19,C3A G21A A57U,0.09
20,C3A U12C C71A,0.2
21,C3A U26C U47C A57G U115C,1.53
22,C3A U96A U112C C133A,0.05
23,C3A U115C A124U A142C,1.31
24,C3U A22G U62C A64G,0.18

row,Variant,self-cleavage
1,C3U A24G G80A G83C U132A,1.16
2,C3U A24G G122A,0.77
3,C3U A24U A57G A79G,0
4,C3U A30G G35A A65U A79G,0.1
5,C3U A30G U52C A140G,1.38
6,C3U A31U U73C,0.53
7,C3U A42G A77U,1.02
8,C3U A42U A50G U52A A69U,0.07
9,C3U A50G A117U,0.32
10,C3U A57U A59G U100C A124G,0.84
11,C3U A64G A94G G137U,0.26
12,C3U A64U A121G,0.27
13,C3U A69G U119C,0.46
14,C3U A69U A94G U115C,0
15,C3U A78G G82A U100C,1.01
16,C3U A92G U96A,0.11
17,C3U A107U C120U,0.88
18,C3U C18U A77G U119C,1.62
19,C3U G7U U20A C51A,0.74
20,C3U G21A A59G U96A U143C,0
21,C3U G21U G55C,0.04
22,C3U G35A U100C A124G,1.39
23,C3U G40A U62A A69G,0.06
24,C3U G74A U108C,0.82

row,Variant,self-cleavage
1,C3U U5C C76U U96C,0.39
2,C3U U9A A117U,1.34
3,C3U U9C G21A,0.48
4,C3U U9C U52A,0.9
5,C3U U9C U132A A138C,0.31
6,C3U U12G A138G,0.6
7,C3U U14C U45A A57G A129G,0.26
8,C3U U14C U115G,1.16
9,C3U U15C A65G G88A,0.07
10,C3U U15C C19U U23C,0.35
11,C3U U23C U87C,0
12,C3U U26C A77C A142G,0.34
13,C3U U26C U45A A64U G97A,0.08
14,C3U U29C U112C U130C A136G,1.84
15,C3U U39A A59G,0.27
16,C3U U45C C68U,0.16
17,C3U U46A G125A A141G,1.33
18,C3U U47A A107C A121G A140U,0.84
19,C3U U47A U104C A141G,0.99
20,C3U U47C A69U,0.36
21,C3U U47C U100C,1.31
22,C3U U62A A107G,0.08
23,C3U U62C U81A A121U,0.06
24,C3U U91A U132C,0.55

row,Variant,self-cleavage
1,C3U U96A U108A,0
2,C3U U96C A117U,0.1
3,C3U U96C A136G,0
4,C3U U109C U143C,1.41
5,G4A A6G C17A C84G,0.23
6,G4A A6U U15C A43G U62C,0.84
7,G4A A24U U81A,2.77
8,G4A A30G G144A,0.85
9,G4A A30U A92G A142U,0.15
10,G4A A42G U45C A69U A94U,0.05
11,G4A A43C C116U A117G U132A,0.69
12,G4A A43G U46C G75A,0.74
13,G4A A43G U87A U119A U134C,0.14
14,G4A A43G U112C,1.46
15,G4A A50G G53A A65G U81A U100C,0
16,G4A A59G G114A A136U,0.2
17,G4A A64U A117U U130C U132C A140G,0.54
18,G4A A65G U73A,0.03
19,G4A A65G U130C U134A,0
20,G4A A67G A142G,0.28
21,G4A A69G U115A,0.5
22,G4A C28A A107G U115C A141G,1.67
23,G4A C56U A94G U100C A141G,0.04

# Source: the RNAGym collection of RNA variant scans (doi:10.7554/elife.90254)
